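Tested at 5 concentrations; 48 h exposure; 96-well plates; endpoints linearly interpolated, else capped at highest concentration. Abbreviation: GI50, concentration required for 50% inhibition of growth.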 Active and inactive are the calls of the source. No stated cut-off is given here; in the data, active = GI50 up to about 1.1 µM and inactive = higher.
tested on: NCI-H322M; experiment: growth of human tumour cells (NCI), 48 h

| SMILES | GI50 |
| --- | --- |
| COc1ccc(-c2cc(N3CCN(c4ccc(Cl)cc4)CC3)c(C#N)c(=O)o2)cc1 | active: 0.132 µM |
| Cc1c(C#N)c2nnn(-c3cccc(Cl)c3)c(=O)n2c1-c1ccccc1 | inactive: 3.93 µM |
| [N-]=[N+]=CC(=O)COC(=O)c1ccccc1 | inactive: > 100 µM |
| O=[N+]([O-])c1cc2c(cc1O)[nH]c1cccc([N+](=O)[O-])c12 | inactive: > 100 µM |
| O=C1NC(=S)N(c2cccc3ccccc23)C(=O)/C1=C/c1c[nH]c2ccccc12 | inactive: 2.44 µM |
| CC(=O)OC12COC1CC(O)C1(C)C(=O)C(O)C3=C(C)C(O)CC(O)(C(OC(=O)c4ccccc4)C21)C3(C)C (stereo not drawn) | inactive: 5.79 µM |
| CC(=O)/N=C1/N(/C=C2\C(=O)Oc3ccccc3C2=O)C(=O)/C(=C/c2ccc(OC(C)=O)cc2)N1C | inactive: > 100 µM |
| Cc1ccc(S(=O)(=O)c2ccc(NC(=O)SCCC(=O)O)cc2)cc1 | inactive: > 100 µM |
| CC(NC(=O)C(CC(=O)OCc1ccccc1)NC(=O)OCc1ccccc1)c1ccccc1 (stereo not drawn) | inactive: 89.7 µM |
| O=C(NC(Cc1ccc(I)cc1)C(=O)O)c1ccc(I)cc1 (stereo not drawn) | inactive: > 100 µM |
| COCOc1cc(OC)ccc1C/C(=N/O)C(=O)OC | inactive: > 100 µM |
| COC(=O)/C=C\COCC1C2CCC(=O)C21 (stereo not drawn) | inactive: > 25 µM |
| CCC(CON(C)c1ccccc1)(SC)SC | inactive: > 100 µM |
| COc1ccc2[nH]c(C(=O)N3CC(CCl)c4ccc(N)cc43)cc2c1 (stereo not drawn) | active: 0.384 µM |
| COC(=O)C1CCC(=S)N1C(=O)c1ccccc1 (stereo not drawn) | inactive: 12.2 µM |
| CCOc1ccc(/C(C=O)=C(\Cl)c2ccc(OC)cc2)cc1 | inactive: > 100 µM |
| CCN(CC)CC(=N)N(CC)c1ccccc1 | inactive: > 100 µM |
| NCCCC(N)(C(=O)O)C(F)F (stereo not drawn) [EFLORNITHINE] | inactive: > 5000 µM |
| COc1cc2c3c(n(C)c(=O)c2cc1OC)-c1cc2c(cc1/C3=C\CCCCCBr)OCO2 | inactive: 20 µM |
| CCNC(=S)NNC(=O)c1ccccc1Nc1ccccc1C(=O)NNC(=S)NCC | inactive: > 100 µM |
| CCOC(=O)NNC(=O)NCc1cccc(CNC(=O)NNC(=O)OCC)c1 | inactive: > 100 µM |
| CC(C)c1ccc2c(c1)/C(=C1/Nc3ccccc3/C1=N/O)C(=O)N2 | inactive: 6.28 µM |
| COc1ccc(N2CCN(Cc3c(C(C)=O)[n+]([O-])c4ccccc4[n+]3[O-])CC2)cc1 | inactive: 21.9 µM |
| Clc1nc(Nc2nc3ccccc3[nH]2)nc(Cl)c1-c1ccccc1 | inactive: > 100 µM |

| SMILES | GI50 |
| --- | --- |
| CCOC(=O)CSC1NC(C(=O)OC)CC1OC (stereo not drawn) | inactive: > 100 µM |
| COc1cc([C@@H]2c3cc4c(cc3[C@@H](NC(=O)c3cccc([N+](=O)[O-])c3)C3COC(=O)[C@@H]32)OCO4)cc(OC)c1O (stereo partly drawn) | inactive: 6.65 µM |
| CSC(=S)NN=C1CCCC1.CSC(=S)NN=C1CCCC1.[Zn+2] | inactive: 16.2 µM |
| O=C(O)/C=C/C(=O)Nc1cccc2c1-c1ccccc1C2=O | inactive: 13.9 µM |
| CCC1(c2ccccc2)Sc2ccccc2-n2cccc2C1=O (stereo not drawn) | inactive: > 10 µM |
| Cc1cc(N(CCC#N)CCC#N)ccc1/C=C1\N=C(c2cc([N+](=O)[O-])ccc2Cl)N(NC(=O)c2ccc(/N=C\c3ccc(N(CCC#N)S(C)(=O)=O)cc3C)cc2)C1=O | inactive: 54.3 µM |
| Cc1ccc(S(=O)(=O)OCC(=O)O)cc1 | inactive: > 100 µM |
| CCNC(=O)C(O)C1(O)CCC2[C@@H]3CCC4=CC(=O)C=C[C@]4(C)C3[C@@H](O)C[C@@]21C (stereo partly drawn) | inactive: > 100 µM |
| Cn1c2c(c3ccccc31)CCN1OCC=C[C@@H](C(=O)O)[C@@H]21 | inactive: > 100 µM |
| Cc1nc2cccc([N+](=O)[O-])c2n1CCCN(C)C | inactive: > 100 µM |
| CC(=O)CC(=O)ON(C)C(=O)Cc1ccccc1 | inactive: > 100 µM |
| CCC(C)CC(C)CC(C)/C=C(\C)C1=C(C)CC(C)(O)O1 (stereo not drawn) | inactive: > 100 µM |
| c1ccc(SC23C4C5C6C4C2C6C53)nc1 (stereo not drawn) | inactive: > 100 µM |
| CCCN(CCC)CCc1cc(C(C)=O)n(S(=O)(=O)c2ccc(C)cc2)c1 | inactive: > 100 µM |
| COc1ccc2c(c1)CC[C@@H]1C2CC[C@]2(C)C(=O)N(N)C(=O)CC12 (stereo partly drawn) | inactive: > 100 µM |
| S=C1N(/N=C/c2c3ccccc3cc3ccccc23)C(=N\c2ccccc2)/C(=N/c2ccccc2)N1c1ccccc1 | inactive: > 100 µM |
| COc1ccc(OC(C)=O)c2c1CCC=CC2=O | inactive: 18.7 µM |
| CN(C)S(=O)(=O)/N=C/c1cccc(/C=N/S(=O)(=O)N(C)C)c1 | inactive: > 100 µM |
| O=C(O)/C=C/C(=O)O [FUMARIC ACID] | inactive: > 100 µM |
| COC1(C)CNCC(C)(C)NC(=O)C(C)(OC)CNCC(C)(C)NC1=O (stereo not drawn) | inactive: > 100 µM |
| O=C(O)/C(=C/C(=O)c1ccc(Cl)cc1)NNc1ccc([N+](=O)[O-])cc1[N+](=O)[O-] | inactive: 36.2 µM |
| COc1ccc2c(c1)/C(=C\c1c(-c3ccccc3)nc3n1CCS3)C(=O)N2 | inactive: 16.1 µM |
| O=C(O)/C(Cc1ccnc2ccccc12)=N\O | inactive: > 100 µM |
| O=C(O)C(O)C(O)C(O)C(O)CO.[Ba+2] (stereo not drawn) | inactive: > 100 µM |

| SMILES | GI50 |
| --- | --- |
| O=C(/C=C/c1ccccc1O)/C=C/c1ccccc1O | inactive: 2.23 µM |
| O=C(c1ccccc1)c1c(CNCc2ccccc2)n(C(=O)c2ccccc2)c2ccccc12 | inactive: 53.6 µM |
| Cc1ccc2nc3sc(=O)sc3nc2c1 [CHINOMETHIONAT] | inactive: 15 µM |
| COc1ccc(C[C@H](N)C(=O)N2C[C@H](CO)C[C@H](n3ccc(=O)[nH]c3=O)C2)cc1 | inactive: > 100 µM |
| Cc1ccc(NC(=O)/C(C#N)=C/c2ccccc2)c(C)c1 | inactive: > 100 µM |
| NC(CCC(=O)O)C(=O)NC(Cc1ccc(N(CCCl)CCCl)cc1)C(=O)O (stereo not drawn) | inactive: > 100 µM |
| CC1COS(=O)N1c1ccccc1 (stereo not drawn) | inactive: > 100 µM |
| O=c1oc2ccc3ccccc3c2cc1-c1nc2ccc([N+](=O)[O-])cc2o1 | inactive: 47.4 µM |
| Nc1nc(O)c2ncn(C3C=CC(CO)C3)c2n1 (stereo not drawn) | inactive: > 100 µM |
| O=S1(=O)N=C(NCc2c[nH]c3ccccc23)N(c2ccccc2)c2ccncc21 | inactive: > 100 µM |
| Cc1ccc(NS(=O)(=O)c2cc(C(C)(C)C)ccc2OCCOCCOCCOc2ccc(C(C)(C)C)cc2S(=O)(=O)Nc2ccc(C)cc2)cc1 | inactive: > 100 µM |
| O=[N+]([O-])c1cccnc1NCC1(CO)CCCC1 | inactive: 23.4 µM |
| COc1ccc(C2SCC(=O)N2NC(=O)C(C)Oc2ccccc2Cl)cc1 (stereo not drawn) | inactive: > 100 µM |
| Cc1nc2c(o1)C(=O)c1ccccc1/C2=N/C1CCCCC1N (stereo not drawn) | inactive: 1.76 µM |
| COCCCNC(=O)CC(=O)NCCCOC | inactive: > 100 µM |
| CC(C)(C)n1c(=O)n(-c2ccccc2)n(C(C)(C)C)c1=O | inactive: > 100 µM |
| CO[C@@]1(c2ccccc2)O[C@H]2OCCC2[C@H]1c1ccc(Cl)cc1 (stereo partly drawn) | inactive: 30.5 µM |
| O=C(NCCCN1CCN(CCCNC(=O)Nc2cc(Cl)ccc2Cl)CC1)Nc1cc(Cl)ccc1Cl | inactive: > 100 µM |
| C=C1c2c(n(S(=O)(=O)c3ccccc3)c3ccccc23)[C@@]2(C(=O)OC)CC3C=CC2N1C3 | inactive: > 100 µM |
| CCOC(=O)C(Cc1ccccc1)NC(=O)c1ccc(/N=N/N(C)C)cc1 (stereo not drawn) | inactive: > 100 µM |
| CCOC(=O)/C(C)=C(/O)C(=O)OCC | inactive: > 100 µM |
| O=P(O)(O)CN1CCN(CP(=O)(O)O)CCN(CP(=O)(O)O)CCN(CP(=O)(O)O)CC1 | inactive: > 100 µM |
| O=C1NNC(=O)c2ccccc2SSc2ccccc2C(=O)NNC(=O)c2ccccc2SSc2ccccc21 | inactive: 27.5 µM |
| Cc1c(C2=NN=C(/N=N/c3c(O)cccc3O)/C2=C/c2ccccc2)c(=O)n(-c2ccccc2)n1C | inactive: > 100 µM |

| SMILES | GI50 |
| --- | --- |
| CC(=O)Oc1ccc(C)c2c1[C@H]1CC[C@]3(C)[C@@H](OC(C)=O)CC[C@H]3[C@@H]1CC2 | inactive: 17.7 µM |
| Cc1occ2c1C(=O)CC1C2[C@@H](O)CC2C(C)(C)CCC[C@]12C (stereo partly drawn) | inactive: > 100 µM |
| CCOC(=O)c1sc2c(C(=O)OCC)n3cc(C)cc(C)c3c2c1O | inactive: > 100 µM |
| C=CCSc1nc2ccccc2c(=O)n1Cc1ccco1 | inactive: > 100 µM |
| O=C(O)CNc1ccc(C(=O)O)cc1 | inactive: > 100 µM |
| CCOC(=O)c1cccc(NC(=O)CI)c1 | inactive: 3.33 µM |
| CSc1c(C#N)c(O)nc(N)c1C(=O)Nc1ccc(C)cc1 | inactive: > 100 µM |
| NC(=O)/C=C/c1c[nH]c2nccnc12 | inactive: 2.01 µM |
| CCCCCCC(C)CC(CCCCCC)NCCOC(=O)c1ccc([N+](=O)[O-])cc1 (stereo not drawn) | inactive: 12.5 µM |
| OC(c1ccc(Br)cc1)(c1cccs1)C1CC1 (stereo not drawn) | inactive: 30.1 µM |
| CC(C)(Oc1ccc2c(=O)cc(-c3ccccc3)oc2c1)C(=O)Nc1c(Cl)cccc1Cl | inactive: > 100 µM |
| COc1ccc2cc1Oc1ccc(cc1)CC1c3cc4c(cc3CCN1C)Oc1c(OC)cc3c(c1O4)C(C2)N(C)CC3 (stereo not drawn) | inactive: 4.17 µM |
| CCOC(=O)Cc1csc(Nc2ccccc2[N+](=O)[O-])n1 | inactive: > 100 µM |
| COc1cc(C2C(C(=O)Nc3ccc(Cl)c(Cl)c3)=C(C)NC(C)=C2C(=O)Nc2ccc(Cl)c(Cl)c2)ccc1O | inactive: 16 µM |
| CC(CN1NC12CCCC2)N1NC12CCCC2 (stereo not drawn) | inactive: > 100 µM |
| O=C(NC(=O)c1cn(CCN2CCN(C(=O)NCCCCCCNC(=O)N3CCN(CCn4cc(C(=O)NC(=O)OCc5ccccc5)c(=O)[nH]c4=O)CC3)CC2)c(=O)[nH]c1=O)OCc1ccccc1 | inactive: > 100 µM |
| CC(Oc1ccc(OCC2CCCCC2)cc1)C(=O)N(CCO)CCO (stereo not drawn) | inactive: > 100 µM |
| Nc1ccc(S(=O)(=O)NCCS(=O)(=O)O)cc1 | inactive: > 100 µM |
| CC(=O)Nc1nc(C)c(S(=O)(=O)NC(=O)NC2NC(=O)NC2=O)s1 (stereo not drawn) | inactive: > 100 µM |
| COCO[C@@H]1C[C@H]2C(=O)N(COC)c3ccccc3C(=O)N2C1 | inactive: > 100 µM |
| CCOC(=O)/C=C(\C(=O)OCC)n1cc(C)c(=O)n(Cc2cnnn2CCCCOC(C)=O)c1=O | inactive: 24 µM |

— ChEMBL document CHEMBL1201862, “PubChem BioAssay data set” (2004)
